# Reference: PMC5681660, “Reduced hepatitis B and D viral entry using clinically applied drugs as novel inhibitors of the bile acid transporter NTCP” (Scientific Reports, 2017)
# Legend:
# human NTCP [1] = target: T1, human NTCP (Homo sapiens, UniProt Q14973); assay: Screening taurocholate uptake assay (96-well, [14C]taurocholate, 10 µM drug); settings: for remaining activity at 10 µM: 10 min, read-out: %NTCP activity
# T1 sequence (Q14973 1-349): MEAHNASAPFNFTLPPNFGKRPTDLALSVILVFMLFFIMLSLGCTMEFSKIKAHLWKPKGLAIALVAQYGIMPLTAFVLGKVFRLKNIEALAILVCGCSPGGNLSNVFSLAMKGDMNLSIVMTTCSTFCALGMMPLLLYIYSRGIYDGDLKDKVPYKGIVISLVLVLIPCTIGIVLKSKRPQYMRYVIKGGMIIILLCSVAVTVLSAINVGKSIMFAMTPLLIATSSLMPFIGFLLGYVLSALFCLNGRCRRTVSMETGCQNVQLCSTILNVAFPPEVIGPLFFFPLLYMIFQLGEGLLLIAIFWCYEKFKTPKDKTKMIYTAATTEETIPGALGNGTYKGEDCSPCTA
# human NTCP [2] = target: T1, human NTCP; assay: Screening fluorescent competitive Myrcludex B-FITC binding assay (96-well, 10 µM drug)
# [3] = Prestwick library screen, Myrcludex B-FITC binding, 10 µM drug
# [4] = Prestwick library screen, 10 µM drug, [14C]taurocholate uptake
# [5] = Prestwick library screen, 10 µM drug, Myrcludex B-FITC binding
# [6] = screen, 10 µM drug, [14C]taurocholate uptake
# [7] = screen, 10 µM drug, Myrcludex B-FITC binding
# [8] = 0.5 h, read-out: %NTCP binding, screen, 10 µM drug, Myrcludex B-FITC binding
# [9] = Prestwick library screen, [14C]taurocholate uptake, 10 µM drug
remaining activity at 10 µM (human NTCP [1]) [%],"remaining activity at 10 µM (human NTCP [2]; 0.5 h, read-out: %NTCP binding) [%]",Compound,other results
71.3,82.6,O=C1C(O)=C([C@H]2CC[C@H](c3ccc(Cl)cc3)CC2)C(=O)c2ccccc21 [Atovaquone],–
137,86.6,O=C(CCCN1CCN(c2ccccn2)CC1)c1ccc(F)cc1 [Azaperone],–
131,83.2,CN1CCCC(n2nc(Cc3ccc(Cl)cc3)c3ccccc3c2=O)CC1 (stereo not drawn) [Azelastine HCl],–
53.2,58,CCOC(=O)OC(C)OC(=O)[C@@H]1N2C(=O)[C@@H](NC(=O)[C@H](N)c3ccccc3)[C@H]2SC1(C)C (stereo partly drawn) [Bacampicillin hydrochloride],–
141,86.5,CCOC(=O)[C@H](CCc1ccccc1)N[C@H]1CCc2ccccc2N(CC(=O)O)C1=O [Benazepril HCl],–
77.2,71.1,CC(Cc1cccc(C(F)(F)F)c1)NCCOC(=O)c1ccccc1 (stereo not drawn) [Benfluorex],–
70.1,83.2,C/C(=C(\CCOP(=O)(O)O)SC(=O)c1ccccc1)N(C=O)Cc1cnc(C)nc1N [Benfotiamine],–
122,101,CCCCOc1cc(C(=O)OCCN(CC)CC)ccc1N [Benoxinate hydrochloride],–
54.3,79,NC(CO)C(=O)NNCc1ccc(O)c(O)c1O (stereo not drawn) [Benserazide hydrochloride],–
92.9,120,NS(=O)(=O)c1cc2c(cc1Cl)N=C(CSCc1ccccc1)NS2(=O)=O [Benzthiazide],–
50.5,70.3,CN(C)CCCOc1nn(Cc2ccccc2)c2ccccc12 [Benzydamine hydrochloride],–
105,72.1,CC1(C)S[C@@H]2[C@H](NC(=O)Cc3ccccc3)C(=O)N2[C@H]1C(=O)O [Benzylpenicillin sodium],–
73,65,CC(C)(Oc1ccc(CCNC(=O)c2ccc(Cl)cc2)cc1)C(=O)O [Bezafibrate],–
86.4,105,COc1ccccc1Oc1c(NS(=O)(=O)c2ccc(C(C)(C)C)cc2)nc(-c2ncccn2)nc1OCCO [Bosentan],–
105,90.4,CCN(CC)CCNC(=O)c1cc(Br)c(N)cc1OC [Bromopride],–
38.4,63.3,O=C(CCCN1CCC(O)(c2ccc(Br)cc2)CC1)c1ccc(F)cc1 [Bromperidol],–
37,70.7,CN(C)CCC(c1ccc(Br)cc1)c1ccccn1 (stereo not drawn) [Brompheniramine maleate],–
70.6,81.7,CCCC1O[C@@H]2C[C@H]3[C@@H]4CCC5=CC(=O)C=C[C@]5(C)[C@H]4[C@@H](O)C[C@]3(C)[C@]2(C(=O)CO)O1 (stereo partly drawn) [Budesonide],–
37.4,71.7,CCCCNc1cc(C(=O)O)cc(S(N)(=O)=O)c1Oc1ccccc1 [Bumetanide],–
79.9,111,CCCCN(CCCC)CCCOC(=O)c1ccc(N)cc1 [Butacaine],–

# Further lines, the compound ahead of its results:
Compound,remaining activity at 10 µM (human NTCP [1]) [%],"remaining activity at 10 µM (human NTCP [2]; 0.5 h, read-out: %NTCP binding) [%]",other results
O=C1O[C@H]([C@@H](O)CO)C(O)=C1O [Ascorbic acid],57.2,77.9,–
COc1ccc(CC2c3cc(OC)c(OC)cc3CC[N+]2(C)CCC(=O)OCCCCCOC(=O)CC[N+]2(C)CCc3cc(OC)c(OC)cc3C2Cc2ccc(OC)c(OC)c2)cc1OC (stereo not drawn) [Atracurium besylate],130,115,–
CC(=O)OC[C@H]1O[C@@H]([S-])[C@H](OC(C)=O)[C@@H](OC(C)=O)[C@@H]1OC(C)=O.CCP(CC)CC.[Au+] [Auranofin],–,–,%NTCP activity (human NTCP [1]): 73.6201%; %NTCP binding (human NTCP [2]; [3]): 109.797%
Nc1ncn([C@@H]2O[C@H](CO)[C@@H](O)[C@H]2O)c(=O)n1 [Azacytidine-5],–,–,%NTCP activity (human NTCP [1]; [4]): 100.597%; %NTCP binding (human NTCP [2]; [5]): 93.694%
Nc1nc(O)c2[nH]nnc2n1 [Azaguanine-8],–,–,%NTCP activity (human NTCP [1]; [4]): 172.189%; %NTCP binding (human NTCP [2]; [5]): 121.626%
CCCC1C(=O)N2C(N(C)C)=Nc3ccc(C)cc3N2C1=O (stereo not drawn) [Azapropazone],75.8,81.2,–
CN1CCC(=C2c3ccccc3CCc3cccnc32)CC1 [Azatadine maleate],115,72.5,–
CC[C@H]1OC(=O)[C@H](C)[C@@H](O[C@H]2C[C@@](C)(OC)[C@@H](O)[C@H](C)O2)[C@H](C)[C@@H](O[C@@H]2O[C@H](C)C[C@H](N(C)C)[C@H]2O)[C@](C)(O)C[C@@H](C)CN(C)[C@H](C)[C@@H](O)[C@]1(C)O [Azithromycin],103,106,–
O=C([O-])CCNC(=O)c1ccc(/N=N/c2ccc(O)c(C(=O)[O-])c2)cc1.[Na+].[Na+] [Balsalazide Sodium],–,–,%NTCP activity (human NTCP [1]; [6]): 79.5523%; %NTCP binding (human NTCP [2]; [7]): 86.6059%
O=C(CCCN1CCC(n2c(O)nc3ccccc32)CC1)c1ccc(F)cc1 [Benperidol],60.2,–,remaining activity at 10 µM (human NTCP [2]; [8]): 77.2%
CC1(C)S[C@@H]2[C@H](NC(=O)Cc3ccccc3)C(=O)N2[C@H]1C(=O)O.CC1(C)S[C@@H]2[C@H](NC(=O)Cc3ccccc3)C(=O)N2[C@H]1C(=O)O.c1ccc(CNCCNCc2ccccc2)cc1 [Benzathine benzylpenicillin],–,–,%NTCP activity (human NTCP [1]; [9]): 92.3561%; %NTCP binding (human NTCP [2]; [3]): 89.656%
CCCCNc1ccc(C(=O)OCCOCCOCCOCCOCCOCCOCCOCCOCCOC)cc1 [Benzonatate],124,119,–
O=C(Oc1cccc2cccnc12)c1ccccc1 [Benzoxiquine],99.1,–,remaining activity at 10 µM (human NTCP [2]; [8]): 54.5%
CN1[C@@H]2CC[C@H]1C[C@@H](OC(c1ccccc1)c1ccccc1)C2 [Benztropine mesylate],79.9,87.8,–
C[N+](C)(CCOc1ccccc1)Cc1ccccc1.O=C([O-])c1cc2ccccc2cc1O [Bephenium hydroxynaphthoate],–,–,%NTCP activity (human NTCP [1]; [6]): 101.229%; %NTCP binding (human NTCP [2]; [7]): 85.3911%
CC(C)COCC(CN(Cc1ccccc1)c1ccccc1)N1CCCC1 (stereo not drawn) [Bepridil hydrochloride],71.5,50.2,–
Cl.N[C@@H]1CCCCN(c2c(F)cc3c(=O)c(C(=O)O)cn(C4CC4)c3c2Cl)C1 [Besifloxacin hydrochloride],–,–,%NTCP activity (human NTCP [1]): 119.185%; %NTCP binding (human NTCP [2]; [5]): 37.1462%
C[C@H]1C[C@H]2[C@@H]3CCC4=CC(=O)C=C[C@]4(C)[C@@]3(F)[C@@H](O)C[C@]2(C)[C@@]1(O)C(=O)CO [Betamethasone],81,64.4,–
NCCc1cc[nH]n1 [Betazole hydrochloride],161,115,–
CC(C[N+](C)(C)C)OC(N)=O (stereo not drawn) [Bethanechol chloride],113,93.2,–
OC(CCN1CCCCC1)(c1ccccc1)C1CC2C=CC1C2 (stereo not drawn) [Biperiden hydrochloride],56.7,78,–
CC[N+](C)(C)Cc1ccccc1Br [Bretylium tosylate],53.7,94,–
CCN[C@H]1CN(CCCOC)S(=O)(=O)c2sc(S(N)(=O)=O)cc21 [Brinzolamide],72.6,61,–
CC(C)C[C@H]1C(=O)N2CCC[C@H]2[C@]2(O)O[C@](NC(=O)[C@@H]3C=C4c5cccc6[nH]c(Br)c(c56)C[C@H]4N(C)C3)(C(C)C)C(=O)N12.CS(=O)(=O)O [Bromocryptine mesylate],–,–,%NTCP activity (human NTCP [1]): 68.1662%; %NTCP binding (human NTCP [2]; [7]): 81.5861%
COc1cc(OC)c(C(=O)CCCN2CCCC2)c(OC)c1.Cl [Buflomedil hydrochloride],–,–,%NTCP activity (human NTCP [1]; [9]): 63.0024%; %NTCP binding (human NTCP [2]; [3]): 58.8073%

# Counter-ions that a name gives are not always drawn. Like-named read-outs stand apart in the source and are kept apart here.
